For test [1], the target named is T1, DcR3 (UniProt O95407 30-300, limits assumed).
T1 construct: the construct is not described; also called decoy receptor DcR3; TNFRSF6B
T1 sequence (looked up): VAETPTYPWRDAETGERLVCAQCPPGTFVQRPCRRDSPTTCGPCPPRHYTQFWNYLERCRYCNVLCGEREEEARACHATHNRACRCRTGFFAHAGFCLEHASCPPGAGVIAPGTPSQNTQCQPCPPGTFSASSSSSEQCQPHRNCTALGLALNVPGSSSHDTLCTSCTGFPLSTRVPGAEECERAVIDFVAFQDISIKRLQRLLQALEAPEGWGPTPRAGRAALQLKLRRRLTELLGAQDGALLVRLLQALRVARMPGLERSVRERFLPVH
As to the kind of experiment: ELISA, DcR3. Background: ELISA stands for enzyme-linked immunosorbent assay.

The target of test [2] is T1, DcR3. As to the kind of experiment: ELISA, DcR3. The source holds these as a separate data set.
In test [3] the target is T2, Recombinant DR3-Fc (R&D Systems, cat. #943-D3) (UniProt Q93038 25-199, limits assumed).
T2 construct: dimeric MW~92 kDa; also called DR3 receptor; Fc-DR3; not shown: Fc part of the bought fusion
T2 sequence (looked up): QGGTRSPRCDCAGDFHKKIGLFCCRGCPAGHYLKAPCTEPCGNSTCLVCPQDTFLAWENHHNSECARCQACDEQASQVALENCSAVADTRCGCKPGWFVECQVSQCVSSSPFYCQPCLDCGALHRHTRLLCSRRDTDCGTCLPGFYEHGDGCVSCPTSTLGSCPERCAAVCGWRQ
Description: ELISA, DR3-Fc immobilized. As for the experimental part:
(§1) All ELISA-based measurements were collected in triplicate, and error values report the standard error between measurements. Recombinant DR3-Fc (R&D Systems, cat. #943-D3), dimeric MW˜92 kDa, was non-specifically immobilized onto plates (Nunc maxisorp, cat. #436110) in 100 μL DR3-Fc, diluted to 10 μg/mL onto a 96-well White Maxisorp plate (Nunc, cat #436110) (O/N, 4° C.). Plates were block for 1 hour at room temperature with 250 μl/well of casein buffer and blocking buffer was removed. 50 μL of TL1A variants were diluted in StartingBlock PBS (Thermo Fisher Scientific), at 25 μg/mL, diluting 3× over each well, according to the plate map description for 20160623) per well on a 96-well White Maxisorp plate (Nunc, cat #: 436110) (overnight at 4° C.).
(§2) Plates were washed three times with TBST. 100 μl/well polyclonal rabbit anti-human TL1A-biotin antibody (diluted 1:1000 in Starting Block PBS) was added and plates were incubated for 1 hour at room temperature with shaking at 150 rpm. TL1A-biotin antibody was removed and 100 μl/well streptavidin-HRP conjugate (diluted 1:10,000 in Starting Block PBS) was added to plates. Plates were incubated for 1 hour at room temperature with shaking at 150 rpm. Plates were washed three times with TBST. 100 μl/well POD Chemiluminescence substrate (Roche, cat #: 11582950001) was added immediately prior to reading plate luminescence using a Molecular Devices M5 plate reader with a delay setting of 100 ms.

The target in test [4] is T2, Recombinant DR3-Fc (R&D Systems, cat. …). As to the kind of experiment: ELISA, DR3-Fc immobilized. As for the experimental part: as §1
Plates were washed three times with TBST. 100 μl/well polyclonal rabbit anti-human TL1A-biotin antibody (diluted 1:1000 in Starting Block PBS) was added and plates were incubated for 1 hour at room temperature with shaking at 150 rpm. TL1A-biotin antibody was removed and 100 μl/well streptavidin-HRP conjugate (diluted 1:10,000 in Starting Block PBS) was added to plates. […] 100 μl/well POD Chemiluminescence substrate (Roche, cat #: 11582950001) was added immediately prior to reading plate luminescence using a Molecular Devices M5 plate reader with a delay setting of 100 ms. […]
This is another data set of the same source.

Test [5] shares this target. As to the kind of experiment: ELISA, DR3-Fc immobilized. As for the experimental part:
as §1, §2
These combination mutants were tested for binding to DR3 and DcR3 (FIGS. 5E and 5F, respectively).
The source holds these as a separate data set.

The target is the same in test [6]. Description: ELISA, TL1A construct immobilized, DR3 titrated.

Like-named read-outs stand apart in the source and are kept apart here.

B1: TL1W14 (Fc-scTL1A with CD4 HC sp prim_transcript) (Fc fusion)
chain: [left out - human IgG1 Fc and a few adjoining residues]GGGGSVYAPLRADGDKPRAHLTVVRQTPTQHFKNQFPALHWEHELGLAFTKNRMNYTNKFLLIPESGDYFIYSQVTFRGMTSECSEIRQAGRPNKPDSITVVITKVTDSYPEPTQLLMGTKSVCEVGSNWFQPIYLGAMFSLQEGDKLMVNVSDISLVDYTKEDKTFFGAFLLGGGSGGGSGGGSVYAPLRADGDKPRAHLTVVRQTPTQHFKNQFPALHWEHELGLAFTKNRMNYTNKFLLIPESGDYFIYSQVTFRGMTSECSEIRQAGRPNKPDSITVVITKVTDSYPEPTQLLMGTKSVCEVGSNWFQPIYLGAMFSLQEGDKLMVNVSDISLVDYTKEDKTFFGAFLLGGGSGGGSGGGSVYAPLRADGDKPRAHLTVVRQTPTQHFKNQFPALHWEHELGLAFTKNRMNYTNKFLLIPESGDYFIYSQVTFRGMTSECSEIRQAGRPNKPDSITVVITKVTDSYPEPTQLLMGTKSVCEVGSNWFQPIYLGAMFSLQEGDKLMVNVSDISLVDYTKEDKTFFGAFLL
notes: Human IgG1 Fc with single-chain TL1A trimer at its C-terminus; dimer with two TL1A trimers; also called Fc-scTL1A (TL1W14); Fc-scTL1A W14
With B1, the EC50 was 6.5 nM in test [1]; 6.5 nM in test [2]; 9.7 nM in test [3]; 9.7 nM in test [5]; 1.5 nM in test [6]. For the same molecule, the “Rel EC50” value in test [1] is 1 ratio (head: nM); in test [4], 1 ratio (head: nM); in test [5], 1 ratio.

For orientation: EC50 means the concentration giving half of the maximal effect.

The values are drawn from patent US20220056104A1 (Janssen / Centocor, published 2022).
